Data: US20070128190A1
Some values that stand alone complete this part of the results.

Target: human platelet α2β1 integrin (immobilized on microtiter plates) (human) (UniProt P17301)
Experiment: competition with Eu-TMC-2206 on platelet α2β1-coated plates, biphasic

UniProt P17301, sequence (P17301 30-1181 E534K limits assumed, chain 1 of 2): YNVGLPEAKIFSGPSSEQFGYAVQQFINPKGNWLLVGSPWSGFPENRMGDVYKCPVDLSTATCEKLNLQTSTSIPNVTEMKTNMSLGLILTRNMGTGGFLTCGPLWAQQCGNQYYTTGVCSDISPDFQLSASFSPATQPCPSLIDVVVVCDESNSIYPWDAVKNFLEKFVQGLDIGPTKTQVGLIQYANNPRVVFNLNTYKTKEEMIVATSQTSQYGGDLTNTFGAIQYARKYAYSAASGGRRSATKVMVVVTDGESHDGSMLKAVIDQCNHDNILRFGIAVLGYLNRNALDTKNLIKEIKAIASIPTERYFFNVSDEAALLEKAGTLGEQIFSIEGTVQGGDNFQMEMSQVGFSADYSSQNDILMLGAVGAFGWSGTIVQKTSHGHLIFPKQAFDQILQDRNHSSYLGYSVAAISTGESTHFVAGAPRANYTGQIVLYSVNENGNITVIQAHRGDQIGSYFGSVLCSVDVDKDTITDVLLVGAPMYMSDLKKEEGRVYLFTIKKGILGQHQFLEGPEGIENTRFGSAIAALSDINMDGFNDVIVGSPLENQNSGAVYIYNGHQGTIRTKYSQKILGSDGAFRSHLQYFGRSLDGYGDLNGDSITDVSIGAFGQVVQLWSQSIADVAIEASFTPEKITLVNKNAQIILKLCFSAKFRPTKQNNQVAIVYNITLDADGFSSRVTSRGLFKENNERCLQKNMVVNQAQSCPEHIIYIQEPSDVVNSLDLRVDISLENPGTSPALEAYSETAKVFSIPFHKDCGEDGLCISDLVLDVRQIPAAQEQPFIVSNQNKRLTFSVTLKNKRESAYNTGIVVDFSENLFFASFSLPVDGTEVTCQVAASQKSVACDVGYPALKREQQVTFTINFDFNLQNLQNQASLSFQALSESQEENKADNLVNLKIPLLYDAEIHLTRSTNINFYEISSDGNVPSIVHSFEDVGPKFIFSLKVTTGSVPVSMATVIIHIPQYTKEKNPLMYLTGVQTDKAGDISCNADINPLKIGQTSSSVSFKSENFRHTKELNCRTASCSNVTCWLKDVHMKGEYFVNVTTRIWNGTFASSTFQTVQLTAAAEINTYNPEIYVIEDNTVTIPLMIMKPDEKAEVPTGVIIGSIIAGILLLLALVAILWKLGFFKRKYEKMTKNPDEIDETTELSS
UniProt P17301, sequence (chain, as listed by the source limits assumed, chain 2 of 2): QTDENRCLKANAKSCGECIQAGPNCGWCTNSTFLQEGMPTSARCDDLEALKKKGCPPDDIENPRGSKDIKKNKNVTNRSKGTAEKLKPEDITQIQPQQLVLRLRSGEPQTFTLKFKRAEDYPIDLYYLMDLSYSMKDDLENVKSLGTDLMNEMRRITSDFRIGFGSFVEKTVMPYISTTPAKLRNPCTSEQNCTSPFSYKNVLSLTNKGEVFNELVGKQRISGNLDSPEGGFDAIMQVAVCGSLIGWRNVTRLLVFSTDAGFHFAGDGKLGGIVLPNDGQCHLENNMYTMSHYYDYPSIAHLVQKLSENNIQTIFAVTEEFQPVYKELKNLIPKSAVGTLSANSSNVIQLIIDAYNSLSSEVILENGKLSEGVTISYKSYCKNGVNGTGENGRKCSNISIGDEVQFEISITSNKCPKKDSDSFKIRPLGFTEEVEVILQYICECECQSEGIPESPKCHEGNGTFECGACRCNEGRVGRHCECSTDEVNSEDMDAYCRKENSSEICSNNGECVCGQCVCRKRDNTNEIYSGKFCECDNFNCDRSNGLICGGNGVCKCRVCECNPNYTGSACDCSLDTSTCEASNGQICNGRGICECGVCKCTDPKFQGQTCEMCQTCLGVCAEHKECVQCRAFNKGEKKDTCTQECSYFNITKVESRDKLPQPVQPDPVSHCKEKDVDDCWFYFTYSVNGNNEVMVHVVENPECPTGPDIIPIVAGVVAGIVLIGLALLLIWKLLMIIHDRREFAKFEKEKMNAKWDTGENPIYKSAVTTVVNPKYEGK

10G11 (antibody)
Ki (High affinity): 0.05 nM
Ki (Low affinity): 7.7 nM
